# Measurements taken from the supplement of paper PMC8728848.
# The other results are listed elsewhere or left out.
# Columns and labels:
# Experiment in all cases: glycan array binding signal (z-score within array); higher = stronger binding
# Details in all cases: glycan notation: IUPAC condensed, linker removed
# GalNAc(b1-6)GalNAc = target: GalNAc(b1-6)GalNAc
# Outline: (§1)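 Glycan array data were curated from 3228 arrays in the Consortium for Functional Glycomics database and kept only where the protein sequence was available. Glycan names were converted to IUPAC-condensed notation, and columns mapping to the same glycan were averaged. The binding signal is a within-array Z-score, averaged across arrays of the same protein sequence at different concentrations or buffers and across linkers. Negative Z-scores can be read as non-binding.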
# Glc(a1-4)Glc = target: Glc(a1-4)Glc
# Outline: as §1
# [1] = target: Glc(a1-4)Glc(a1-4)Glc(a1-4)Glc
# Outline: as §1
# Glc(a1-6)Glc(a1-6)Glc = target: Glc(a1-6)Glc(a1-6)Glc
# Outline: as §1
# [2] = target: Glc(a1-6)Glc(a1-6)Glc(a1-6)Glc
# Outline: as §1
# Glc(b1-4)Glc = target: Glc(b1-4)Glc
# Outline: as §1
# Glc(b1-6)Glc = target: Glc(b1-6)Glc
# Outline: as §1
# GlcA(b1-3)Gal = target: GlcA(b1-3)Gal
# Outline: as §1
# GlcA(b1-3)GlcNAc = target: GlcA(b1-3)GlcNAc
# Outline: as §1
# GlcA(b1-6)Gal = target: GlcA(b1-6)Gal
# Outline: as §1
# [3] = target: GlcNAc(a1-3)Gal(b1-4)GlcNAc
# Outline: as §1
# [4] = target: GlcNAc(a1-4)Gal(b1-3)GlcNAc
# Outline: as §1
# [5] = target: GlcNAc(a1-4)Gal(b1-4)GalNAc
# Outline: as §1
# [6] = target: GlcNAc(a1-4)Gal(b1-4)GlcNAc
# Outline: as §1
# [7] = target: GlcNAc(a1-4)Gal(b1-4)GlcNAc(b1-3)Gal(b1-4)Glc
# Outline: as §1
# [8] = target: GlcNAc(a1-4)Gal(b1-4)GlcNAc(b1-3)Gal(b1-4)GlcNAc
# Outline: as §1
# [9] = target: GlcNAc(a1-4)Gal(b1-4)GlcNAc(b1-3)Gal(b1-4)GlcNAc(b1-3)Gal(b1-4)GlcNAc
# Outline: as §1
# [10] = target: GlcNAc(a1-4)Gal(b1-4)GlcNAc(b1-3)Gal(b1-4)[Fuc(a1-3)]GlcNAc(b1-3)Gal(b1-4)[Fuc(a1-3)]GlcNAc
# Outline: as §1
# [11] = target: GlcNAc(a1-6)Gal(b1-4)GlcNAc
# Outline: as §1
# [12] = target: GlcNAc(b1-2)Gal(b1-3)GalNAc
# Outline: as §1
# [13] = target: GlcNAc(b1-2)Man(a1-3)[GlcNAc(b1-2)Man(a1-6)]Man(b1-4)GlcNAc(b1-4)GlcNAc
# Outline: as §1
# [14] = target: GlcNAc(b1-2)Man(a1-3)[GlcNAc(b1-2)Man(a1-6)]Man(b1-4)GlcNAc(b1-4)[Fuc(a1-6)]GlcNAc
# Outline: as §1
# [15] = target: GlcNAc(b1-2)Man(a1-3)[GlcNAc(b1-4)][GlcNAc(b1-2)Man(a1-6)]Man(b1-4)GlcNAc(b1-4)GlcNAc
# Outline: as §1
# [16] = target: GlcNAc(b1-2)[GlcNAc(b1-4)]Man(a1-3)[GlcNAc(b1-2)Man(a1-6)]Man(b1-4)GlcNAc(b1-4)GlcNAc
# Outline: as §1
# [17] = target: GlcNAc(b1-2)[GlcNAc(b1-4)]Man(a1-3)[GlcNAc(b1-4)][GlcNAc(b1-2)Man(a1-6)]Man(b1-4)GlcNAc(b1-4)GlcNAc
# Outline: as §1
# [18] = target: GlcNAc(b1-2)[GlcNAc(b1-4)]Man(a1-3)[GlcNAc(b1-4)][GlcNAc(b1-2)[GlcNAc(b1-6)]Man(a1-6)]Man(b1-4)GlcNAc(b1-4)GlcNAc
# Outline: as §1
# [19] = target: GlcNAc(b1-2)[GlcNAc(b1-6)]Man(a1-6)[GlcNAc(b1-2)Man(a1-3)]Man(b1-4)GlcNAc(b1-4)GlcNAc
# Outline: as §1
# [20] = target: GlcNAc(b1-2)[GlcNAc(b1-6)]Man(a1-6)[GlcNAc(b1-2)Man(a1-3)][GlcNAc(b1-4)]Man(b1-4)GlcNAc(b1-4)GlcNAc
# Outline: as §1
# GlcNAc(b1-3)Gal = target: GlcNAc(b1-3)Gal
# Outline: as §1
# [21] = target: GlcNAc(b1-3)Gal(b1-3)GalNAc
# Outline: as §1
# GlcNAc(b1-3)Gal(b1-4)Glc = target: GlcNAc(b1-3)Gal(b1-4)Glc
# Outline: as §1
# [22] = target: GlcNAc(b1-3)Gal(b1-4)GlcNAc
# Outline: as §1
# [23] = target: GlcNAc(b1-3)Gal(b1-4)GlcNAc(b1-3)Gal(b1-4)GlcNAc
# Outline: as §1
# GlcNAc(b1-3)GalNAc = target: GlcNAc(b1-3)GalNAc
# Outline: as §1
# GlcNAc(b1-3)Man = target: GlcNAc(b1-3)Man
# Outline: as §1
# [24] = target: GlcNAc(b1-3)[GlcNAc(b1-4)][GlcNAc(b1-6)]GlcNAc
# Outline: as §1
# [25] = target: GlcNAc(b1-3)[GlcNAc(b1-6)]Gal(b1-4)GlcNAc
# Outline: as §1
# [26] = target: GlcNAc(b1-3)[GlcNAc(b1-6)]GalNAc
# Outline: as §1
# [27] = target: GlcNAc(b1-4)Gal(b1-4)GlcNAc
# Outline: as §1
# GlcNAc(b1-4)GlcNAc = target: GlcNAc(b1-4)GlcNAc
# Outline: as §1
# [28] = target: GlcNAc(b1-4)GlcNAc(b1-4)GlcNAc
# Outline: as §1
# [29] = target: GlcNAc(b1-4)GlcNAc(b1-4)GlcNAc(b1-4)GlcNAc(b1-4)GlcNAc
# Outline: as §1
# [30] = target: GlcNAc(b1-4)GlcNAc(b1-4)GlcNAc(b1-4)GlcNAc(b1-4)GlcNAc(b1-4)GlcNAc
# Outline: as §1
# [31] = target: GlcNAc(b1-4)[GlcNAc(b1-6)]GalNAc
# Outline: as §1
# [32] = target: GlcNAc(b1-6)Gal(b1-4)GlcNAc
# Outline: as §1
binder,measurement,setting,value
"CV-2L (Chromobacterium violaceum), Q7NX84 (protein) MAQQGVFTLPARINFGVTVLVNSAATQHVEIFVDNEPRAAFSGVGTGDNNLGTKVINSGSGNVRVQITANGRQSDLVSSQLVLANKLNLAVVGSEDGTDMDYNDSIVILNWPLG",glycan array binding signal (z-score),GalNAc(b1-6)GalNAc,-0.323
same,glycan array binding signal (z-score),Glc(a1-4)Glc,-0.336
same,glycan array binding signal (z-score),[1],-0.34
same,glycan array binding signal (z-score),Glc(a1-6)Glc(a1-6)Glc,-0.347
same,glycan array binding signal (z-score),[2],-0.34
same,glycan array binding signal (z-score),Glc(b1-4)Glc,-0.337
same,glycan array binding signal (z-score),Glc(b1-6)Glc,-0.349
same,glycan array binding signal (z-score),GlcA(b1-3)Gal,-0.345
same,glycan array binding signal (z-score),GlcA(b1-3)GlcNAc,-0.347
same,glycan array binding signal (z-score),GlcA(b1-6)Gal,-0.347
same,glycan array binding signal (z-score),[3],-0.345
same,glycan array binding signal (z-score),[4],-0.352
same,glycan array binding signal (z-score),[5],-0.344
same,glycan array binding signal (z-score),[6],-0.332
same,glycan array binding signal (z-score),[7],-0.349
same,glycan array binding signal (z-score),[8],-0.246
same,glycan array binding signal (z-score),[9],-0.347
same,glycan array binding signal (z-score),[10],-0.238
same,glycan array binding signal (z-score),[11],-0.342
same,glycan array binding signal (z-score),[12],-0.338
same,glycan array binding signal (z-score),[13],-0.345
same,glycan array binding signal (z-score),[14],-0.267
same,glycan array binding signal (z-score),[15],-0.356
same,glycan array binding signal (z-score),[16],-0.209
same,glycan array binding signal (z-score),[17],-0.341
same,glycan array binding signal (z-score),[18],-0.344
same,glycan array binding signal (z-score),[19],-0.339
same,glycan array binding signal (z-score),[20],-0.337
same,glycan array binding signal (z-score),GlcNAc(b1-3)Gal,-0.339
same,glycan array binding signal (z-score),[21],-0.337
same,glycan array binding signal (z-score),GlcNAc(b1-3)Gal(b1-4)Glc,-0.346
same,glycan array binding signal (z-score),[22],-0.334
same,glycan array binding signal (z-score),[23],-0.34
same,glycan array binding signal (z-score),GlcNAc(b1-3)GalNAc,-0.345
same,glycan array binding signal (z-score),GlcNAc(b1-3)Man,-0.343
same,glycan array binding signal (z-score),[24],-0.35
same,glycan array binding signal (z-score),[25],-0.349
same,glycan array binding signal (z-score),[26],-0.349
same,glycan array binding signal (z-score),[27],-0.339
same,glycan array binding signal (z-score),GlcNAc(b1-4)GlcNAc,-0.343
same,glycan array binding signal (z-score),[28],-0.347
same,glycan array binding signal (z-score),[29],-0.35
same,glycan array binding signal (z-score),[30],-0.336
same,glycan array binding signal (z-score),[31],-0.341
same,glycan array binding signal (z-score),[32],-0.358
